# According to PubChem BioAssay AID1745845 (National Center for Advancing Translational Sciences (NCATS), 2022):
# Where “and” joins values, the source holds several entries; their conditions need not be identical. Equal entries are not always repeated. Screen size: about 360,000 compounds; about 2,600 (0.72%) were called active. The inconclusive results got no clear call from the source; some entries with a clear call stand among them for comparison. Calls follow the shape of the dose curve; as a rule, active = well fitted inhibition curve with a large enough effect; inconclusive = small, poorly fitted or top-dose-only effect; inactive = no such curve, though single readings can be large or run the other way. Where the call is inconclusive, the potency comes from a doubtful curve fit.
# Assay: Primary qHTS for Inhibitors of ATXN expression; also: nearly all actives have a fitted effect of over 55% in size
# Details: HEK-293 ATXN2-luciferase reporter, luminescence, 24 h; activity change, negative = inhibition: at 57 µM (top of the series)
# In short: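 ATXN2-luciferase reporter cells (luciferase flanked by upstream and downstream ATXN2 gene portions) were treated 24 h at 37 °C with compounds at up to 57 uM. SteadyGlo luminescence gave expression; GF-AFC fluorescence gave viability.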
# % is scaled to controls: 0 for no effect and ±100 for the full control effect; potency is read from the fitted curve at half-maximal effect; tags tell the direction and shape of the fitted curve.
SMILES,Potency,"activity change, negative = inhibition"
Nc1c(C(=O)Nc2cccc(Br)c2)sc2nc3c(cc12)N1CCC3CC1,"inconclusive: 39.8 µM [inhibitor, single point]",
CC(C)(O)/C=C/C(=O)C(C)(O)C1C(O)CC2(C)C3CC=C4C(C=C(O)C(=O)C4(C)C)C3(C)C(=O)CC12C (configuration not stated),"inconclusive: 2.12 µM [inhibitor, partial curve, poor fit]",
CN1Cc2cccnc2N(C)Cc2cc(Cl)ccc21,"inconclusive: 39.8 µM [inhibitor, partial curve, poor fit]",
CC1(C)C(C(=O)N2CCN(c3ccc(Cl)cc3)CC2)C1(C)C,"inconclusive: 25.1 µM [inhibitor, partial curve, poor fit]",
O=C(CN1C(=O)CN=C(c2ccccc2)c2ccccc21)Nc1cccc(C(F)(F)F)c1,"inconclusive: 39.8 µM [inhibitor, single point]",
CC(C)(O)C=CC(=O)[C@](C)(O)[C@H]1[C@H](O)C[C@]2(C)[C@@H]3CC=C4[C@@H](C=C(O)C(=O)C4(C)C)[C@]3(C)C(=O)C[C@@]12C,active: 1.53 µM,
COc1cc2c3cc1Oc1cc(ccc1O)C[C@@H]1c4c(cc(OC)c(O)c4Oc4ccc(cc4)C[C@H]3N(C)CC2)CCN1C,"inconclusive: 14.1 µM [inhibitor, partial curve]",
CCOC(=O)[C@]12Cc3cc(C)ccc3[C@H]1N(CCC(=O)OC)C(=O)c1cc(OC)ccc12,active: 22.4 µM,
OC(Cn1c2ccccc2c2ccccc21)C[n+]1cccc2ccccc21 (configuration not stated),"inconclusive: 28.2 µM [inhibitor, single point]",
Cc1ccc2c(c1)[C@@H]1CN(C)CC[C@@H]1N2C(=O)Nc1cccc(C(F)(F)F)c1,"inconclusive: 28.2 µM [inhibitor, single point]",
Cc1cccc(CN2CCCC(C(=O)c3ccc(C(F)(F)F)cc3)C2)n1 (configuration not stated),"inconclusive: 35.5 µM [inhibitor, single point]",
CCOC(=O)[C@]12Cc3cc4ccccc4cc3[C@H]1N(Cc1ccccc1)C(=O)c1cc(OC)ccc12,active: 20 µM,
O=C1NCN(c2ccccc2)C12CCN(C(c1cccs1)c1nnnn1Cc1ccccc1)CC2 (configuration not stated),"inconclusive: 25.1 µM [inhibitor, single point]",
CC(C)=CC1C(C(=O)OCN2C(=O)C3=C(CCCC3)C2=O)C1(C)C (configuration not stated),"inconclusive: 35.5 µM [inhibitor, partial curve, poor fit]",
C[C@H]1CCC/C=C/[C@@H]2C[C@H](O)C[C@H]2[C@@H](O)/C=C/C(=O)O1,"inconclusive: 0.947 µM [inhibitor, full curve, poor fit]",
C[C@H]1CCC/C=C/[C@@H]2C[C@H](O)C[C@H]2[C@H](O)/C=C/C(=O)O1,"inconclusive: 1.12 µM [inhibitor, full curve] and inconclusive: 631 nM [inhibitor, full curve]",
CC1(C)C[C@H]2C=C(C=O)[C@]3(C=O)C[C@]3(C)[C@H]2C1,active: 3.55 µM,
CN1CCN(c2ccc([N+](=O)[O-])c3no[n+]([O-])c23)CC1,"inconclusive: 43.2 µM [inhibitor, single point] and active: 2.38 µM",
CCC(C)C1NC(=O)C(NC(=O)C(CC(C)C)N(C)C(=O)C2CCCN2C(=O)C(C)O)C(C)OC(=O)C(Cc2ccc(OC)cc2)N(C)C(=O)C2CCCN2C(=O)C(CC(C)C)NC(=O)[C@H](C)C(=O)[C@H](C(C)C)OC(=O)CC1O (some centres not stated),"inconclusive: 0.0067 µM [inhibitor, full curve, poor fit]",

SMILES,Potency,"activity change, negative = inhibition"
O=C(N/N=C/c1c(O)n(Cc2ccco2)c(=O)[nH]c1=O)c1ccccc1O,,inactive: 0.787%
CCCCCn1c(=O)c(C(=O)Nc2ccccc2S(N)(=O)=O)c(O)c2ccccc21,"inconclusive: 14.1 µM [inhibitor, partial curve, poor fit]",
C[C@]12CC[C@H](O)C[C@H]1CC[C@@H]1C2CC[C@]2(C)[C@@H](C3=CC(=O)OC3)[C@@H](O)C[C@]12O (some centres not stated),active: 2 µM,
CC(C)CCn1c(N)c(C(=O)NCc2cccs2)c2nc3ccccc3nc21,"inconclusive: 39.8 µM [inhibitor, single point]",
CC12CCC3C(CCC4(O)CC(O)CCC34C=O)C1(O)CCC2C1=CC(=O)OC1 (configuration not stated),active: 1.78 µM,
COc1cccc(N2CCN(Cc3ccc(Cl)cc3)CC2)c1,,inactive: -8.7%
CCOC(=O)[C@]12Cc3cc(OC)ccc3[C@H]1N(C)C(=O)c1cc(OC)ccc12,"inconclusive: 22.4 µM [inhibitor, single point]",
COc1cccc(C(c2nnnn2-c2c(C)cccc2C)N2CCC(n3c(=O)[nH]c4ccccc43)CC2)c1OC (configuration not stated),"inconclusive: 22.4 µM [inhibitor, single point]",
O=[N+]([O-])c1ccc(N2CCCCC2)c2ncccc12,,inactive: -21.5%
O=C(COc1ccc2ccc(=O)oc2c1)N1C[C@H]2C[C@@H](C1)c1cccc(=O)n1C2,,inactive: 2.75%
O=C1NC(=O)C(=Cc2ccc(-c3cc(Cl)ccc3[N+](=O)[O-])o2)C(=O)N1,"inconclusive: 23.8 µM [inhibitor, single point]",
CC[C@@]1(O)C(=O)OCc2c1cc1n(c2=O)Cc2cc3ccccc3nc2-1,active: 0.0193 µM,
Nc1c(C(=O)NCC2CCCO2)c2nc3ccccc3nc2n1Cc1ccco1 (configuration not stated),"inconclusive: 7.94 µM [inhibitor, partial curve, poor fit]",
CC(=O)OC1(C)CC(C)C(=O)C(C(O)CC2CC(=O)NC(=O)C2)C1 (configuration not stated),active: 0.0299 µM,
O=C(Nc1ccc(OC(=O)N2CCCCC2)cc1)N1CCOCC1,"inconclusive: 0.891 µM [inhibitor, full curve, poor fit]",
CC(C)(C)c1ccc(O)c(N=Cc2c(O)ccc3ccccc23)c1,"inconclusive: 20 µM [inhibitor, partial curve, poor fit]",
COC(=O)C1=C(c2cccc(C#N)c2)C[C@@H]2CC[C@H]1N2C(=O)NCCOc1ccccc1Cl,,inactive: 3.15%
COc1cc2c(cc1OC)C(C1c3cc4c(cc3CCN1C)OCO4)OC2=O (configuration not stated),"inconclusive: 0.844 µM [inhibitor, partial curve, poor fit]",
